# According to the supplement of paper PMC3334620:
# Whole data set: some 33,000 sequences, median “E-score (-0.5 to 0.5)” near -0.01, cut for the highest 2% near 0.26. Some of the results follow.
# Biological target: Ste12 (UniProt P13574)
# Assay: PBM E-score (8-mer binding enrichment) (E-score (-0.5 to 0.5)); higher = stronger / more preferred TF binding; most listed sequences are background and not binding sites
# Details: protein concentration: 200 nM; construct: GST-DNA-binding domain
# Summary of the method: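 Detection of bound protein used fluorescent anti-GST, with scans normalised by masliner. The proteins were GST-tagged yeast transcription factors applied at about 100-200 nM to universal all-10-mer Agilent arrays made double-stranded by primer extension. Each ungapped eight-base word, pooled with its reverse complement, was scored with an E-score from the Universal PBM Analysis Suite.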
row,Sequence,PBM E-score
1,AAATTGGA,0.0787
2,ACCAGGTA,-0.0709
3,AACGATTG,-0.0702
4,AGGTAGTG,-0.123
5,CCTTGGAG,-0.0707
6,ACCGTCCT,-0.234
7,CAATGAGA,-0.00961
8,ACGGTTAT,0.0788
9,ACCAGCGC,-0.0495
10,GCTTGATA,0.083
11,TCCTAAGA,-0.00559
12,ATATGATG,-0.0703
13,GTTGTAAA,0.0455
14,AGGGCAGC,-0.327
15,AAACATGG,0.206
16,ATGCACAA,0.0737
17,AGTCACCC,-0.0517
18,CGTCGGTA,-0.0954
19,GAATAAAA,0.137
20,AATGAAGT,-0.00833
21,TCAAATGA,0.0955
22,ATATCGGG,0.0327
23,GGACTCTA,-0.243
24,ACGGCGAG,0.0521
25,GCATACAA,-0.0844

row,Sequence,PBM E-score
1,AACGGGAA,0.0292
2,ACGTGTAG,-0.182
3,ACCACGTG,0.0498
4,GCATCCCC,-0.131
5,ATTATTAA,0.242
6,CACGCCGG,0.141
7,TGAAAAAA,0.293
8,ATGAGGAC,-0.0838
9,GCCATCGC,-0.196
10,CGTTTGCC,0.0523
11,AGATAATG,0.063
12,CTCATAGA,-0.0578
13,TATACTGA,0.174
14,ACAAAGTG,0.0815
15,ACAATCGA,0.0393
16,ACGCGCGG,0.158
17,TCGCCCAA,-0.0371
18,ATGAATAC,0.0977
19,CAACCGGG,0.0313
20,TGATTCAA,0.179
21,CACATGGA,-0.221
22,TGTGATAA,0.11
23,AAGTGCAA,-0.0141
24,CCCGGCAA,0.0783
25,GCCCTGCC,-0.0475

row,Sequence,PBM E-score
1,AGGTGAGG,0.0169
2,CTGAACGC,-0.132
3,CAATACGC,-0.142
4,CCGGCCGG,0.248
5,AGAAGTCC,-0.247
6,GGTGACAA,0.0614
7,TTCCTAAA,0.0474
8,GCATCACC,-0.0706
9,CTGAAGTC,-0.0409
10,ACTCTAAA,0.125
11,CTACCGCA,-0.21
12,AAGAGGTG,-0.0242
13,CATAATCG,0.196
14,ATTAAGTC,-0.0618
15,AGGTATTA,0.0192
16,ACTACTAG,0.0458
17,TCGGCGAA,0.0352
18,GCTTGCCA,-0.196
19,AGCGCGCT,0.00199
20,CACCCTTA,0.00998
21,ACGTCAAA,0.0313
22,GTATGATA,0.0429
23,GCCAGGCA,-0.0592
24,ACGCTAGG,-0.137
25,CTTTCGTA,0.142

row,Sequence,PBM E-score
1,GACGTACC,-0.167
2,AGCCTAAT,-0.0402
3,AATATTAA,0.327
4,ATATATGA,0.188
5,AACAACGC,0.111
6,CGGTCCAG,-0.256
7,AGTGCTGA,0.0366
8,ACGGCGGC,-0.0851
9,CCCTTACC,0.0255
10,ACGAACCG,-0.0535
11,AGCTCTTG,-0.0968
12,ATTAAAGG,0.133
13,ATTTCCAC,0.188
14,GAAACTTC,0.189
15,ATCCGTCC,-0.0284
16,CGGGTACC,-0.148
17,ATATCCAT,0.0604
18,AATTGGTC,0.123
19,AGATCTAT,-0.0216
20,CACGTCAA,-0.217
21,CAGGAACC,-0.241
22,CTCTTCCC,-0.0727
23,AGCGTGAC,-0.001
24,ACCCAAGT,-0.00847
25,AACTAGTC,-0.0411

row,Sequence,PBM E-score
1,ATACTGGG,-0.0204
2,AACGATCG,0.0136
3,AGGAGGAA,-0.0888
4,CGCTGGTA,-0.118
5,AACCACCT,0.125
6,AAGCTTGG,-0.136
7,ACGCCATG,-0.167
8,CCTTAGGA,-0.114
9,TATTTCAA,0.282
10,CAACAGGC,-0.109
11,AATCCAGT,0.00589
12,ATTGTATA,0.0784
13,TGGCAACA,-0.0715
14,CGGAGGAA,-0.167
15,AGGTCTTG,-0.0986
16,AAGGGGGA,-0.247
17,TAGCTCAA,-0.104
18,AAAGTTGC,-0.12
19,TACCGTCA,0.0353
20,CCTGGCGA,-0.00458
21,AGGGCCCC,-0.278
22,TGAGCGCA,-0.25
23,CGCCCAGA,-0.0783
24,ACCGTTTG,-0.0273
25,AGGGGTCC,-0.215

row,Sequence,PBM E-score
1,ACCGGTGC,-0.0741
2,AATAGTTC,-0.0574
3,AATAACTC,0.12
4,GGAACGTA,-0.0226
5,GCATTGCC,-0.194
6,CGCGGAAG,0.116
7,GGATCCAA,-0.0177
8,CCGCTAAA,-0.197
9,CCCAGCCC,-0.17
10,AAGTATCG,-0.0231
11,TACGCGAA,0.0572
12,CATGATGA,0.0449
13,AGCATGTG,-0.139
14,AAGGCGGT,-0.0505
15,AGGCTAGG,-0.0905
16,TTGCACAA,-0.127
17,CGATCATC,-0.075
18,TATAGGCA,-0.179
19,TAGTTGAA,0.145
20,AGACTCCA,-0.268
21,AAGTACCA,-0.12
22,TCACGCCA,-0.172
23,GTCCAAGA,-0.191
24,AATAATAA,0.308
25,CACGATAC,-0.0561

row,Sequence,PBM E-score
1,GCGTTTTA,0.352
2,CAGCCGAG,-0.0685
3,CCATTTCC,0.037
4,AATTAAAT,0.156
5,GGCTTAAA,0.253
6,GCGAGCGC,-0.0453
7,GCACTCAC,-0.0309
8,ATCCTTCA,0.0985
9,GACTTCAC,-0.16
10,CATTGGGC,-0.255
11,AAAACAAT,0.225
12,CGTCCACC,-0.242
13,ATTGCTTG,-0.0516
14,GGTAAGGA,-0.108
15,CTCTCAAA,0.0271
16,AAGCTGGT,-0.051
17,TGAAGCCA,-0.03
18,ATAACAGC,-0.0504
19,CCACGTTC,-0.0942
20,GGAGAACC,-0.0942
21,AGGCGCGG,-0.0442
22,TAAACTTA,0.168
